Measurements from paper PMC9626503.
Residue numbers refer to the chain shown, from its start. Results are given in words; binding and its absence hold for the method and conditions named. For part of these data: Binding seen in cells or lysates may run through a third protein. Some results given as binding are weak or reduced against the parent protein; the word gives no strength. Tags and fused reporters may be left off the sequences shown.

By UniProt entry, the sequences of proteins in these tests, tags left out. Where a name states a change or a piece, a line headed by the entry shows the natural chain unless it says otherwise.
UniProt Q15291: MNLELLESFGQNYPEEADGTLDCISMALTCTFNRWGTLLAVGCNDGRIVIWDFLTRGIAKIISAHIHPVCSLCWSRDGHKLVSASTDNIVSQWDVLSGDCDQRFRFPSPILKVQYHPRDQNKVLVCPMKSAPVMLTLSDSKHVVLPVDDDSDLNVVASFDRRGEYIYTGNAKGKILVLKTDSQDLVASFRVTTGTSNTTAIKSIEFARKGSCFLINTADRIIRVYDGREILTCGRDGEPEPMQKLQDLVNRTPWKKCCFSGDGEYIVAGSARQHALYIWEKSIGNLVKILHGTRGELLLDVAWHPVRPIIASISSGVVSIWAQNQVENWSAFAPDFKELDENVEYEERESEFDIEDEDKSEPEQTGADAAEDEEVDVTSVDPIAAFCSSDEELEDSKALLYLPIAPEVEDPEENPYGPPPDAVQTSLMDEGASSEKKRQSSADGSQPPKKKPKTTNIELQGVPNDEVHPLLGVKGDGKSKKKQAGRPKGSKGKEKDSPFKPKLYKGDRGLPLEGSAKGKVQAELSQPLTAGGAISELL
UniProt Q9UBL3: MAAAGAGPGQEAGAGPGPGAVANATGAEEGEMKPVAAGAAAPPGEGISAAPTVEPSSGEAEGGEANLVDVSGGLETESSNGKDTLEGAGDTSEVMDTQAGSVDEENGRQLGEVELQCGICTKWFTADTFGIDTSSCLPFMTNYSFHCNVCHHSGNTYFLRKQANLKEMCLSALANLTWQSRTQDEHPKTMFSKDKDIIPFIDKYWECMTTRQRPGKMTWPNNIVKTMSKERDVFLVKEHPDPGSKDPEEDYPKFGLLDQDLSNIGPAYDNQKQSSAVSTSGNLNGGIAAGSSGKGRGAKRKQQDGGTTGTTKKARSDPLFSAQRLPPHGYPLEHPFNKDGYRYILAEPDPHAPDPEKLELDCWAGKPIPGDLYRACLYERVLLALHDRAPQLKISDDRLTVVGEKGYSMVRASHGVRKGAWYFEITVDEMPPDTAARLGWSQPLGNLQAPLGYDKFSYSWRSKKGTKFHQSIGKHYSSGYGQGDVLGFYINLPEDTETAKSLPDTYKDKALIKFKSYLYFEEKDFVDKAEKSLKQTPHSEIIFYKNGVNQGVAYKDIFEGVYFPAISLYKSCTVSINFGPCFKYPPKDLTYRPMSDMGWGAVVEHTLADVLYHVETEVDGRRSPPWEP

Key:
[1] = target: T1, FLAG-FOXQ1 (full-length) (human) (UniProt Q9C009); experiment: co-IP; RbBP5 deletion constructs co-expressed individually with FLAG-FOXQ1 in HEK293 cells (Supplementary Fig. 4e, f); which partner was precipitated is not told
T1 sequence: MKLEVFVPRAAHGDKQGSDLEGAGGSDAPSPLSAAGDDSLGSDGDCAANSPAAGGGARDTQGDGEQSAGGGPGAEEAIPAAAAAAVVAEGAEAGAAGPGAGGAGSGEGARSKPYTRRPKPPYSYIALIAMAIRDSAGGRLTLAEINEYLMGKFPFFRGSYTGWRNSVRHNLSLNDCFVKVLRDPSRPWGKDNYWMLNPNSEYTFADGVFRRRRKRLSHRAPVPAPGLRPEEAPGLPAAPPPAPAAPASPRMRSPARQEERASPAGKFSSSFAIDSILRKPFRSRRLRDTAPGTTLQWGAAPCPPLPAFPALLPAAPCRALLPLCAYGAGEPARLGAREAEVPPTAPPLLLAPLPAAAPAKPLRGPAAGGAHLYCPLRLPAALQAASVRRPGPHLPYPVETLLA

[2] = target: T2, GST-FOXQ1 (human) (UniProt Q9C009); experiment: pull-down; GST-FOXQ1 or GST alone on glutathione-agarose beads, incubated with 100 μg of one purified MLL core complex protein in BC100 with 0.1% BSA overnight at 4 °C; washed with BC100 with 1% Triton-X; western blot; both purified
T2 sequence: T1 sequence

[3] = target: T1, FLAG-FOXQ1 (full-length) (human); experiment: co-IP; FLAG-tagged FOXQ1 full-length or fragments transfected into HEK293 cells; IP with anti-FLAG resin; blot for endogenous RbBP5
[4] = target: T3, FLAG-FOXQ1 Forkhead box fragment (105-227) (human) (UniProt Q9C009); experiment: as above
T3 sequence: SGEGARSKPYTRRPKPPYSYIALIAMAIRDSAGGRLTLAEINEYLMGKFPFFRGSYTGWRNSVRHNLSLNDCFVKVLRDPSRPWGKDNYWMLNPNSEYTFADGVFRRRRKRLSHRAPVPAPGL

[5] = target: T4, FLAG-FOXQ1 C-terminal fragment (204-403) (human) (UniProt Q9C009); experiment: as above
T4 sequence: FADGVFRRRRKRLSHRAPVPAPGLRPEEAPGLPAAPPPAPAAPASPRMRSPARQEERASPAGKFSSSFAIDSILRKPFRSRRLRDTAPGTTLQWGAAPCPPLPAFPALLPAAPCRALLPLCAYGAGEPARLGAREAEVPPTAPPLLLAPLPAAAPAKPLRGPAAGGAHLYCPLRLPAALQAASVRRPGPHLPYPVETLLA

[6] = target: T5, FLAG-FOXQ1 C-terminal residues 142-403 (human) (UniProt Q9C009); experiment: as above
T5 sequence: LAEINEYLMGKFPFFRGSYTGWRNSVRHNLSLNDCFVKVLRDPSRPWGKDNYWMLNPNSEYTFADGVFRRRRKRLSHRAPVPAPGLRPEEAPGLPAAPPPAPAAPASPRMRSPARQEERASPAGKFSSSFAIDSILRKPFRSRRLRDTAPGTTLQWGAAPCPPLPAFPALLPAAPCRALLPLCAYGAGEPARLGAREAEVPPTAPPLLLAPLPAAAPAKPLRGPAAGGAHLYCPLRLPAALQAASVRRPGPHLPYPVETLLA

[7] = target: T6, FLAG-FOXQ1 N-terminal fragment (1-142) (human) (UniProt Q9C009); experiment: as above
T6 sequence: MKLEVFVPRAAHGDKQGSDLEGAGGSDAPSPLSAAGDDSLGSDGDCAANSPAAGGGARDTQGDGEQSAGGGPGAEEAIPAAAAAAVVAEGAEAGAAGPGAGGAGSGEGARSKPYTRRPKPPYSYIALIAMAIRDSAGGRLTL

[8] = target: T7, FLAG-FOXQ1 N-terminal 75-142 (human) (UniProt Q9C009); experiment: as above
T7 sequence: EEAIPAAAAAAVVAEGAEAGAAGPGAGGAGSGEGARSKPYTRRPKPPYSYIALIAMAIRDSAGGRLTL

[9] = target: T8, FOXQ1 wild type with C-terminal V5-epitope tag (human) (UniProt Q9C009); experiment: co-IP; anti-V5 IP of FOXQ1-V5 from stable HMLE/FOXQ1 lysate; blots for endogenous MLL core complex proteins; Co-IP buffer 20 mM Tris-HCl, 140 mM NaCl, 10% glycerol, 1% NP-40, 2 mM EDTA, 4 °C overnight
T8 sequence: T1 sequence

[10] = target: T9, FOXQ1 A136P with C-terminal V5 tag (human) (UniProt Q9C009); experiment: co-IP; WT and point-mutant FOXQ1-V5 transfected into HEK293 cells; anti-V5 IP; blot for RbBP5
T9 sequence: T1 sequence with A136P

[11] = target: T10, FOXQ1 G138E with C-terminal V5 tag (human) (UniProt Q9C009); experiment: as above
T10 sequence: T1 sequence with G138E

[12] = target: T11, FOXQ1 G137E with C-terminal V5 tag (human) (UniProt Q9C009); experiment: as above
T11 sequence: T1 sequence with G137E

[13] = target: T8, FOXQ1 wild type with C-terminal V5-epitope tag (human); experiment: as above
[14] = target: T12, FOXQ1 A126S with C-terminal V5 tag (human) (UniProt Q9C009); experiment: as above
T12 sequence: T1 sequence with A126S

In the case of “RbBP5 C-terminal region (330-538), MYC-tagged (from UniProt Q15291 330-538) (domain or fragment)”, the binding [1] was “binds”.

With “recombinant RbBP5 (from UniProt Q15291 1-538)” the binding [2] was “binds”.

With “recombinant ASH2L (from UniProt Q9UBL3 1-628)” the binding [2] was “no binding (tested: 100 μg of purified protein)”.

“endogenous RbBP5 (from UniProt Q15291 1-538)” was tested, and the binding [3] was “binds”, the binding [4] was “binds” and the binding [5] was “no binding”. The binding [6] was “no binding”, the binding [7] was “binds” and the binding [8] was “binds”. For the same substance, the binding [9] was “binds”, the binding [10] was “binds” and the binding [11] was “binds”. For the same substance, the binding [12] was “binds”, the binding [13] was “binds” and the binding [14] was “binds”.
